# Test results from the supplement of paper PMC8728848.
# This is one part of the list.
# B1: Cohesin-hDCIR (Homo sapiens) (protein)
# chain: LDDLDAVRIKVDTVNAKPGDTVRIPVRFSGIPSKGIANCDFVYSYDPNVLEIIEIEPGDIIVDPNPDKSFDTAVYPDRKIIVFLFAEDSGTGAYAITKDGVFATIVAKVKEGAPNGLSVIKFVEVGGFANNDLVEQKTQFFDGGANVGDTTEPATPTTPVTTPTTTDDLDAASQKYSQLLEKKTTKELVHTTLECVKKNMPVEETAWSCCPKNWKSFSSNCYFISTESASWQDSEKDCARMEAHLLVINTQEEQDFIFQNLQEESAYFVGLSDPEGQRHWQWVDQTPYNESSTFWHPREPSDPNERCVVLNFRKSPKRWGWNDVNCLGPQRSVCEMMKIHLHHHHHH
# Tests used:
# Experiment in all cases: glycan array binding signal (z-score within array); higher = stronger binding
# Details in all cases: glycan notation: IUPAC condensed, linker removed
# [1] = biological target: Gal(b1-3)GlcNAc(b1-6)[Gal(b1-3)]GalNAc
# In short: (§1)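 The binding signal is a Z-score computed within each array and averaged over linkers. Arrays of the same protein sequence at different concentrations or buffers were also averaged together. Data originate from 3228 arrays in the Consortium for Functional Glycomics database, kept only where the protein sequence was available.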
# [2] = biological target: Gal(b1-3)GlcNAc6S
# In short: as §1
# [3] = biological target: Gal(b1-3)[Fuc(a1-4)]GlcNAc
# In short: as §1
# [4] = biological target: Gal(b1-3)[Fuc(a1-4)]GlcNAc(b1-2)Man
# In short: as §1
# [5] = biological target: Gal(b1-3)[Fuc(a1-4)]GlcNAc(b1-2)Man(a1-3)[Gal(b1-3)[Fuc(a1-4)]GlcNAc(b1-2)Man(a1-6)]Man(b1-4)GlcNAc(b1-4)[Fuc(a1-6)]GlcNAc
# In short: as §1
# [6] = biological target: Gal(b1-3)[Fuc(a1-4)]GlcNAc(b1-3)Gal(b1-3)[Fuc(a1-4)]GlcNAc
# In short: as §1
# [7] = biological target: Gal(b1-3)[Fuc(a1-4)]GlcNAc(b1-3)Gal(b1-4)[Fuc(a1-3)]GlcNAc
# In short: as §1
# [8] = biological target: Gal(b1-3)[Fuc(a1-4)]GlcNAc(b1-6)GalNAc
# In short: as §1
# [9] = biological target: Gal(b1-3)[GlcNAc(b1-6)]GalNAc
# In short: as §1
# [10] = biological target: Gal(b1-3)[Neu5Ac(a2-6)]GalNAc
# In short: as §1
# [11] = biological target: Gal(b1-3)[Neu5Ac(a2-6)]GlcNAc(b1-4)Gal(b1-4)Glc
# In short: as §1
# [12] = biological target: Gal(b1-3)[Neu5Ac(b2-6)]GalNAc
# In short: as §1
# [13] = biological target: Gal(b1-4)Gal
# In short: as §1
# [14] = biological target: Gal(b1-4)GalNAc(a1-3)[Fuc(a1-2)]Gal(b1-4)GlcNAc
# In short: as §1
# [15] = biological target: Gal(b1-4)GalNAc(b1-3)[Fuc(a1-2)]Gal(b1-4)GlcNAc
# In short: as §1
# [16] = biological target: Gal(b1-4)Glc
# In short: as §1
# [17] = biological target: Gal(b1-4)Glc6S
# In short: as §1
# [18] = biological target: Gal(b1-4)GlcNAc
# In short: as §1
# [19] = biological target: Gal(b1-4)GlcNAc(a1-6)Gal(b1-4)GlcNAc
# In short: as §1
# [20] = biological target: Gal(b1-4)GlcNAc(b1-2)Man
# In short: as §1
# [21] = biological target: Gal(b1-4)GlcNAc(b1-2)Man(a1-3)Man(b1-4)GlcNAc(b1-4)GlcNAc
# In short: as §1
# [22] = biological target: Gal(b1-4)GlcNAc(b1-2)Man(a1-3)[Gal(b1-4)GlcNAc(b1-2)Man(a1-6)]Man(b1-4)GlcNAc(b1-4)GlcNAc
# In short: as §1
# [23] = biological target: Gal(b1-4)GlcNAc(b1-2)Man(a1-3)[Gal(b1-4)GlcNAc(b1-2)Man(a1-6)]Man(b1-4)GlcNAc(b1-4)[Fuc(a1-6)]GlcNAc
# In short: as §1
# [24] = biological target: Gal(b1-4)GlcNAc(b1-2)Man(a1-3)[Gal(b1-4)GlcNAc(b1-2)Man(a1-6)][Gal(b1-4)GlcNAc(b1-4)]Man(b1-4)GlcNAc(b1-4)[Fuc(a1-6)]GlcNAc
# In short: as §1
# [25] = biological target: Gal(b1-4)GlcNAc(b1-2)Man(a1-3)[Gal(b1-4)GlcNAc(b1-2)Man(a1-6)][GlcNAc(b1-4)]Man(b1-4)GlcNAc(b1-4)[Fuc(a1-6)]GlcNAc
# In short: as §1
# [26] = biological target: Gal(b1-4)GlcNAc(b1-2)Man(a1-3)[GlcNAc(b1-2)Man(a1-6)]Man(b1-4)GlcNAc(b1-4)GlcNAc
# In short: as §1
# [27] = biological target: Gal(b1-4)GlcNAc(b1-2)Man(a1-3)[GlcNAc(b1-4)][Gal(b1-4)GlcNAc(b1-2)Man(a1-6)]Man(b1-4)GlcNAc(b1-4)GlcNAc
# In short: as §1
# [28] = biological target: Gal(b1-4)GlcNAc(b1-2)Man(a1-3)[Man(a1-6)]Man(b1-4)GlcNAc(b1-4)GlcNAc
# In short: as §1
# [29] = biological target: Gal(b1-4)GlcNAc(b1-2)Man(a1-6)Man(b1-4)GlcNAc(b1-4)GlcNAc
# In short: as §1
# [30] = biological target: Gal(b1-4)GlcNAc(b1-2)Man(a1-6)[GlcNAc(b1-2)Man(a1-3)]Man(b1-4)GlcNAc(b1-4)GlcNAc
# In short: as §1
# [31] = biological target: Gal(b1-4)GlcNAc(b1-2)Man(a1-6)[Man(a1-3)]Man(b1-4)GlcNAc(b1-4)GlcNAc
# In short: as §1
# [32] = biological target: Gal(b1-4)GlcNAc(b1-2)[Gal(b1-4)GlcNAc(b1-4)]Man(a1-3)[Gal(b1-4)GlcNAc(b1-2)Man(a1-6)]Man(b1-4)GlcNAc(b1-4)GlcNAc
# In short: as §1
# [33] = biological target: Gal(b1-4)GlcNAc(b1-2)[Gal(b1-4)GlcNAc(b1-4)]Man(a1-3)[Gal(b1-4)GlcNAc(b1-2)[Gal(b1-4)GlcNAc(b1-6)]Man(a1-6)]Man(b1-4)GlcNAc(b1-4)GlcNAc
# In short: as §1
# [34] = biological target: Gal(b1-4)GlcNAc(b1-2)[Gal(b1-4)GlcNAc(b1-4)]Man(a1-3)[GlcNAc(b1-4)][Gal(b1-4)GlcNAc(b1-2)Man(a1-6)]Man(b1-4)GlcNAc(b1-4)GlcNAc
# In short: as §1
# [35] = biological target: Gal(b1-4)GlcNAc(b1-2)[Gal(b1-4)GlcNAc(b1-4)]Man(a1-3)[GlcNAc(b1-4)][Gal(b1-4)GlcNAc(b1-2)[Gal(b1-4)GlcNAc(b1-6)]Man(a1-6)]Man(b1-4)GlcNAc(b1-4)GlcNAc
# In short: as §1
# [36] = biological target: Gal(b1-4)GlcNAc(b1-2)[Gal(b1-4)GlcNAc(b1-6)]Man(a1-6)[Gal(b1-4)GlcNAc(b1-2)Man(a1-3)]Man(b1-4)GlcNAc(b1-4)GlcNAc
# In short: as §1
# [37] = biological target: Gal(b1-4)GlcNAc(b1-2)[Gal(b1-4)GlcNAc(b1-6)]Man(a1-6)[Gal(b1-4)GlcNAc(b1-2)Man(a1-3)]Man(b1-4)GlcNAc(b1-4)[Fuc(a1-6)]GlcNAc
# In short: as §1
# [38] = biological target: Gal(b1-4)GlcNAc(b1-2)[Gal(b1-4)GlcNAc(b1-6)]Man(a1-6)[GlcNAc(b1-4)][Gal(b1-4)GlcNAc(b1-2)Man(a1-3)]Man(b1-4)GlcNAc(b1-4)GlcNAc
# In short: as §1
# [39] = biological target: Gal(b1-4)GlcNAc(b1-2)[Gal(b1-4)GlcNAc(b1-6)]Man(a1-6)[GlcNAc(b1-4)][Gal(b1-4)GlcNAc(b1-2)[Gal(b1-4)GlcNAc(b1-4)]Man(a1-3)]Man(b1-4)GlcNAc(b1-4)[Fuc(a1-6)]GlcNAc
# In short: as §1
# [40] = biological target: Gal(b1-4)GlcNAc(b1-3)Gal(b1-3)GalNAc
# In short: as §1
# [41] = biological target: Gal(b1-4)GlcNAc(b1-3)Gal(b1-3)GlcNAc
# In short: as §1
# [42] = biological target: Gal(b1-4)GlcNAc(b1-3)Gal(b1-4)Glc
# In short: as §1
# [43] = biological target: Gal(b1-4)GlcNAc(b1-3)Gal(b1-4)GlcNAc
# In short: as §1
# [44] = biological target: Gal(b1-4)GlcNAc(b1-3)Gal(b1-4)GlcNAc(b1-2)Man(a1-3)[Gal(b1-4)GlcNAc(b1-3)Gal(b1-4)GlcNAc(b1-2)Man(a1-6)]Man(b1-4)GlcNAc(b1-4)GlcNAc
# In short: as §1
# [45] = biological target: Gal(b1-4)GlcNAc(b1-3)Gal(b1-4)GlcNAc(b1-2)Man(a1-3)[Gal(b1-4)GlcNAc(b1-3)Gal(b1-4)GlcNAc(b1-2)Man(a1-6)]Man(b1-4)GlcNAc(b1-4)[Fuc(a1-6)]GlcNAc
# In short: as §1
binder,measurement,setting,value
B1,glycan array binding signal (z-score),[1],-0.586
same,glycan array binding signal (z-score),[2],-0.559
same,glycan array binding signal (z-score),[3],-0.107
same,glycan array binding signal (z-score),[4],-0.501
same,glycan array binding signal (z-score),[5],-0.243
same,glycan array binding signal (z-score),[6],-0.386
same,glycan array binding signal (z-score),[7],-0.415
same,glycan array binding signal (z-score),[8],-0.439
same,glycan array binding signal (z-score),[9],-0.299
same,glycan array binding signal (z-score),[10],-0.529
same,glycan array binding signal (z-score),[11],-0.579
same,glycan array binding signal (z-score),[12],-0.678
same,glycan array binding signal (z-score),[13],-0.389
same,glycan array binding signal (z-score),[14],-0.416
same,glycan array binding signal (z-score),[15],-0.582
same,glycan array binding signal (z-score),[16],-0.446
same,glycan array binding signal (z-score),[17],-0.325
same,glycan array binding signal (z-score),[18],-0.193
same,glycan array binding signal (z-score),[19],0.036
same,glycan array binding signal (z-score),[20],-0.192
same,glycan array binding signal (z-score),[21],0.28
same,glycan array binding signal (z-score),[22],0.859
same,glycan array binding signal (z-score),[23],-0.335
same,glycan array binding signal (z-score),[24],-0.533
same,glycan array binding signal (z-score),[25],-0.671
same,glycan array binding signal (z-score),[26],0.292
same,glycan array binding signal (z-score),[27],-0.594
same,glycan array binding signal (z-score),[28],-0.403
same,glycan array binding signal (z-score),[29],-0.401
same,glycan array binding signal (z-score),[30],-0.029
same,glycan array binding signal (z-score),[31],-0.693
same,glycan array binding signal (z-score),[32],-0.693
same,glycan array binding signal (z-score),[33],-0.587
same,glycan array binding signal (z-score),[34],-0.569
same,glycan array binding signal (z-score),[35],-0.57
same,glycan array binding signal (z-score),[36],-0.352
same,glycan array binding signal (z-score),[37],0.059
same,glycan array binding signal (z-score),[38],-0.419
same,glycan array binding signal (z-score),[39],-0.655
same,glycan array binding signal (z-score),[40],-0.458
same,glycan array binding signal (z-score),[41],-0.676
same,glycan array binding signal (z-score),[42],-0.399
same,glycan array binding signal (z-score),[43],-0.307
same,glycan array binding signal (z-score),[44],2.05
same,glycan array binding signal (z-score),[45],1.82
